# PubChem BioAssay (Tox21)
# “And” between values parts separate entries of the source, which are not always exact repeats. Identical values can stand only once. This list was built around the results that the source calls inconclusive (neither active nor inactive); the mix of calls is not that of the screen. Where the call is inconclusive, the potency comes from a doubtful curve fit. Where a structure was tested more than once in an assay, its records may differ in their call. The source made the active and inactive calls. Calls follow the shape of the dose curve; as a rule, active = well fitted activation curve with a large enough effect in the repeat runs; inconclusive = weak or mixed curves, or effect the other way; inactive = no such curve, though single readings can be large or run the other way. *1 amine or outer side, *2 acyl side, *3 side chain or, on linkers, in order; H or OH if unused. Where a SMILES comes first, the peptide text is derived from it. Bridges are numbered along the chain shown (N, C = ends). Roman numbers before positions name the chains, in order. [ ]: non-standard residue; d: D form. Actinocin(9to1) = Cc1c2oc3c(C)ccc(C(=O)[*:1])c3nc-2c(C(=O)[*:2])c(N)c1=O; NMeV = CN[C@H](C(=O)O)C(C)C; Sar = CNCC(=O)O
# Assay: qHTS assay to identify small molecule agonists of the retinoic acid receptor (RAR) signaling pathway (AID 1159553)
# Conditions: C3RL4 RARE luciferase reporter, agonist, 6 h; activation: at 73.3 µM (top of the series) unless noted
# Description: National Center for Advancing Translational Sciences [NCATS] NIH Chemical Genomics Center [NCGC] U.S. Environmental Protection Agency [EPA] National Institutes of Environmental Health Sciences [NIEHS] National Toxicology Program [NTP] Assay overview: All-trans Retinoic acid (atRA) is the potent natural metabolite of retinol and plays an important role in normal embryonic development and maintenance of cellular phenotype in adult animals. atRA is the activating ligand for the retinoic acid receptors (RARs) which form heterodimers with retinoid X receptors (RXRs) on the retinoic acid response element (RARE). Through activation of the RAR/RXRs nuclear receptors, atRA regulates the transcription of a large number of protein-coding genes and regulatory RNAs. Intracellular levels of atRA are controlled by the retinol signaling pathway (RSP) that regulates the biosynthesis and catabolism of atRA to maintain physiological levels. Chemicals that interfere with the RSP can cause abnormal intracellular levels of atRA and therefore are potential developmental toxicants. To assess compounds for the potential adverse effect on embryonic development through interfering with retinol signaling, a cell-based RARE luciferase reporter gene assay was used. C3RL4 cell line (OARSA/CFSAN/FDA, Laurel, MD) was used to screen Tox21 10K compound library for identifying activators of the RSP.
# Assay Protocol Summary: C3RL4 cells were seeded at 1,000/well in 5 uL of assay medium into white solid 1,536-well tissue culture plates (Greiner Bio-One North America Inc. Monroe, NC) using a Multidrop Combi (Thermo Scientific, Waltham, MA) dispenser. After incubation at 37 C and 5% CO2 for an overnight, 23 nL of compounds dissolved in DMSO, positive control or DMSO only were transferred by a Pintool station (Kalypsys, San Diego, CA). After 6 hr incubation at 37 C and 5% CO2, 5 uL of Amplite Luciferase reagent (AAT Bioquest Inc. Sunnyvale, CA) was added to each assay plate using a Flying Reagent Dispenser (FRD) (Aurora Discovery, San Diego, CA). Luminescence was quantified on a ViewLux plate reader (PerkinElmer, Waltham, MA) after 30 min incubation at room temperature.
# % is scaled to controls: 0 for no effect and ±100 for the full control effect; potency is read from the fitted curve at half-maximal effect; tags tell the direction and shape of the fitted curve.
Structure (SMILES),activation,Potency
O=C(OCC(O)CO)c1ccccc1Nc1ccnc2c(C(F)(F)F)cccc12 (stereo not given),inactive: -7.68%,
CC[N+](CC)(CCNC(=O)C(=O)NCC[N+](CC)(CC)Cc1ccccc1Cl)Cc1ccccc1Cl,inactive: 0.303%,
Cc1cccc(O)c1N,inactive: 0.108% [at 94.8 µM],
Nc1ccc(O)c(N)c1,inconclusive: -12.8% [phenotype inactive],
CC(C)(C)c1cc(Cc2cc(C(C)(C)C)c(O)c(C(C)(C)C)c2)cc(C(C)(C)C)c1O,inconclusive: -0.566% [phenotype inactive],
Cc1ccc([N+](=O)[O-])c(N)c1,inconclusive: -8.6% [phenotype inactive],
CS(=O)(=O)c1ccc(-c2cn3ccccc3n2)cc1,,active: 1.68 µM
CC(=O)[C@H]1CC[C@H]2[C@@H]3CCC4=CC(=O)CC[C@]4(C)[C@H]3CC[C@]12C,,"inconclusive: 34.2 µM [inhibitor, partial curve, poor fit] and inconclusive: 61.1 µM [inhibitor, partial curve, poor fit]"
O=C=NCC1CCCC(CN=C=O)C1 (stereo not given),inactive: -0.117%,
COC(=O)c1c(C)cc(O)c(C)c1O,inactive: 0.0138%,
OCCN1CCN(CCCN2c3ccccc3Sc3ccc(Cl)cc32)CC1,,inconclusive: 29.8 µM [inhibitor]
O=C(OCC(COC(=O)c1cccnc1)(COC(=O)c1cccnc1)COC(=O)c1cccnc1)c1cccnc1,inconclusive: 1.04% [phenotype inactive],
C=CC(=O)OCCCC,,inactive
NCCS(=O)(=O)O,,active: 28.4 µM
COC(=O)C1CCC(C(=O)OC)CC1 (stereo not given),,"inconclusive: 77 µM [activator, partial curve, poor fit]"
CCCCCCCCCCCCOC(C)=O,inactive: -2.54%,
O=C(O)c1ccc(-n2nc(-c3ccccc3O)nc2-c2ccccc2O)cc1,,"inconclusive: 26.6 µM [activator, partial curve]"
Oc1ccc2ccccc2c1N=Nc1ccccc1,,"active: 12.2 µM and inconclusive: 8.63 µM [activator, full curve, poor fit]"
O=C1c2ccccc2C(=O)C1(O)O,,inconclusive: 68.9 µM [inhibitor]
C=CCNc1nc(NCC=C)nc(N2CCN(C(c3ccc(F)cc3)c3ccc(F)cc3)CC2)n1,inactive: 2%,

Structure (SMILES),activation,Potency
CCCCOCCOC(=O)c1ccccc1C(=O)OCCOCCCC,,"inconclusive: 67.1 µM [inhibitor, single point] and inconclusive: 61.1 µM [inhibitor, partial curve, poor fit]"
NNC(=O)c1cccc(C(=O)NN)c1,,inconclusive: 68.6 µM [activator]
O=C(CCCCCCCCC#CI)Oc1ccccc1,inactive: -10.5%,
CCCCCCCCO[C@@H]1O[C@H](CO)[C@@H](O)[C@H](O)[C@H]1O,inactive: 0.746%,
CCCCCC(CO)CCC (stereo not given),inactive: -0.13%,
CCCCOc1ccc(OCCCN2CCOCC2)cc1,,active: 21.1 µM
CC(=O)OCC(C)OC(C)=O (stereo not given),inconclusive: -4.75% [phenotype inactive],
CN1CCN(CCC(=O)N2c3ccccc3Sc3ccc(C(F)(F)F)cc32)CC1,,inconclusive: 26.6 µM [inhibitor]
CCCCN(CCN(CCCC)C(=O)N1CCOCC1)C(=O)N1CCOCC1,,"inconclusive: 33.5 µM [inhibitor, single point]"
CC(C(O)c1ccccc1)N(C)CCOC(c1ccccc1)c1ccccc1 (stereo not given),,"inconclusive: 29.8 µM [inhibitor, single point]"
Nc1ccccc1O,,"inconclusive: 10.7 µM [activator, partial curve, poor fit]"
CN(C)CCOC(c1ccccc1)c1ccccc1 (tested in a mixture with another compound),,"inconclusive: 77.5 µM [inhibitor, single point]"
CN1CCCC1=O,active: -0.377% [at 94.8 µM],
C=C(CC)C(=O)c1ccc(OCC(=O)O)c(Cl)c1Cl,,"inconclusive: 68.1 µM [inhibitor] and inconclusive: 29.8 µM [inhibitor, partial curve]"
C[n+]1c2cc(N)ccc2cc2ccc(N)cc21 (tested in a mixture with another compound),,"inconclusive: 21.1 µM [inhibitor, partial curve]"
CC(C)COC(=O)c1ccc(N)cc1,,active: 18.8 µM
CCCCCCCCCCCCSC#N,,"inconclusive: 77 µM [activator, partial curve, poor fit]"
CCCCC1C(=O)N(c2ccccc2)N(c2ccc(O)cc2)C1=O (stereo not given),,"inconclusive: 2.66 µM [activator, full curve]"
"Cc1c2oc3c(C)ccc(C(=O)N[C@@H]4C(=O)N[C@H](C(C)C)C(=O)N5CCC[C@H]5C(=O)N(C)CC(=O)N(C)[C@@H](C(C)C)C(=O)O[C@@H]4C)c3nc-2c(C(=O)N[C@@H]2C(=O)N[C@H](C(C)C)C(=O)N3CCC[C@H]3C(=O)N(C)CC(=O)N(C)[C@@H](C(C)C)C(=O)O[C@@H]2C)c(N)c1=O (I: T[dV]P[Sar][NMeV] / II: T[dV]P[Sar][NMeV]; ester I:1-I:C, II:1-II:C; linker I:N-II:N via Actinocin(9to1))",,"inconclusive: 3.8 nM [inhibitor, full curve, poor fit] and inconclusive: 37.6 nM [inhibitor, full curve]"
Cc1cc(=O)c2c(O)c3c(O)cc(=O)c4c3c3c(cc(O)c1c23)C(C)(C)C=4O,,"inconclusive: 2.06 µM [inhibitor, full curve]"
